# Measurements published in the supplement of paper PMC8728848.
# The list shows a part of the results.
# What was measured:
# Test in all cases: glycan array binding signal (z-score within array); higher = stronger binding
# Settings in all cases: glycan notation: IUPAC condensed, linker removed; mutation: W10H
# [1] = target: Fuc(a1-2)[GalNAc(a1-3)]Gal(b1-3)GlcNAc(b1-3)GalNAc
# Summary of the method: (§1)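 Glycan array data were curated from 3228 arrays in the Consortium for Functional Glycomics database and kept only where the protein sequence was available. Glycan names were converted to IUPAC-condensed notation, and columns mapping to the same glycan were averaged. The binding signal is a within-array Z-score, averaged across arrays of the same protein sequence at different concentrations or buffers and across linkers. Negative Z-scores can be read as non-binding.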
# [2] = target: Fuc(a1-2)[GalNAc(a1-3)]Gal(b1-3)GlcNAc(b1-6)GalNAc
# Summary of the method: as §1
# [3] = target: Fuc(a1-2)[GalNAc(a1-3)]Gal(b1-4)Glc
# Summary of the method: as §1
# [4] = target: Fuc(a1-2)[GalNAc(a1-3)]Gal(b1-4)GlcNAc
# Summary of the method: as §1
# [5] = target: Fuc(a1-2)[GalNAc(a1-3)]Gal(b1-4)GlcNAc(b1-2)Man
# Summary of the method: as §1
# [6] = target: Fuc(a1-2)[GalNAc(a1-3)]Gal(b1-4)GlcNAc(b1-2)Man(a1-3)[Fuc(a1-2)[GalNAc(a1-3)]Gal(b1-4)GlcNAc(b1-2)Man(a1-6)]Man(b1-4)GlcNAc(b1-4)GlcNAc
# Summary of the method: as §1
# [7] = target: Fuc(a1-2)[GalNAc(a1-3)]Gal(b1-4)GlcNAc(b1-2)Man(a1-3)[Fuc(a1-2)[GalNAc(a1-3)]Gal(b1-4)GlcNAc(b1-2)Man(a1-6)]Man(b1-4)GlcNAc(b1-4)[Fuc(a1-6)]GlcNAc
# Summary of the method: as §1
# [8] = target: Fuc(a1-2)[GalNAc(a1-3)]Gal(b1-4)GlcNAc(b1-3)Gal(b1-4)GlcNAc
# Summary of the method: as §1
# [9] = target: Fuc(a1-2)[GalNAc(a1-3)]Gal(b1-4)GlcNAc(b1-3)Gal(b1-4)GlcNAc(b1-3)Gal(b1-4)GlcNAc
# Summary of the method: as §1
# [10] = target: Fuc(a1-2)[GalNAc(a1-3)]Gal(b1-4)GlcNAc(b1-3)GalNAc
# Summary of the method: as §1
# [11] = target: Fuc(a1-2)[GalNAc(a1-3)]Gal(b1-4)GlcNAc(b1-3)[Fuc(a1-2)[GalNAc(a1-3)]Gal(b1-4)GlcNAc(b1-6)]GalNAc
# Summary of the method: as §1
# [12] = target: Fuc(a1-2)[GalNAc(a1-3)]Gal(b1-4)GlcNAc(b1-6)GalNAc
# Summary of the method: as §1
# [13] = target: Fuc(a1-2)[GalNAc(a1-3)]Gal(b1-4)[Fuc(a1-3)]GlcNAc
# Summary of the method: as §1
# [14] = target: Fuc(a1-2)[GalNAc(a1-3)]Gal(b1-4)[Fuc(a1-3)]GlcNAc(b1-3)GalNAc
# Summary of the method: as §1
# [15] = target: Fuc(a1-2)[GalNAc(a1-4)]Gal(b1-4)GlcNAc
# Summary of the method: as §1
# [16] = target: Fuc(a1-2)[GalNAc(b1-3)]Gal
# Summary of the method: as §1
# Fuc(a1-3)GlcNAc = target: Fuc(a1-3)GlcNAc
# Summary of the method: as §1
# [17] = target: Fuc(a1-3)[Gal(b1-4)]Glc6S
# Summary of the method: as §1
# [18] = target: Fuc(a1-3)[Gal(b1-4)]GlcNAc
# Summary of the method: as §1
# [19] = target: Fuc(a1-3)[Gal(b1-4)]GlcNAc(b1-2)Man
# Summary of the method: as §1
# [20] = target: Fuc(a1-3)[Gal(b1-4)]GlcNAc(b1-2)Man(a1-3)[Fuc(a1-3)[Gal(b1-4)]GlcNAc(b1-2)Man(a1-6)]Man(b1-4)GlcNAc(b1-4)GlcNAc
# Summary of the method: as §1
# [21] = target: Fuc(a1-3)[Gal(b1-4)]GlcNAc(b1-2)Man(a1-3)[Fuc(a1-3)[Gal(b1-4)]GlcNAc(b1-2)Man(a1-6)]Man(b1-4)GlcNAc(b1-4)[Fuc(a1-6)]GlcNAc
# Summary of the method: as §1
# [22] = target: Fuc(a1-3)[Gal(b1-4)]GlcNAc(b1-3)Gal(b1-3)[Fuc(a1-4)]GlcNAc
# Summary of the method: as §1
# [23] = target: Fuc(a1-3)[Gal(b1-4)]GlcNAc(b1-3)Gal(b1-4)[Fuc(a1-3)]GlcNAc
# Summary of the method: as §1
# [24] = target: Fuc(a1-3)[Gal(b1-4)]GlcNAc(b1-3)Gal(b1-4)[Fuc(a1-3)]GlcNAc(b1-3)Gal(b1-4)[Fuc(a1-3)]GlcNAc
# Summary of the method: as §1
# [25] = target: Fuc(a1-3)[Gal(b1-4)]GlcNAc(b1-3)GalNAc
# Summary of the method: as §1
# [26] = target: Fuc(a1-3)[Gal(b1-4)]GlcNAc(b1-6)GalNAc
# Summary of the method: as §1
# [27] = target: Fuc(a1-3)[Gal(b1-4)]GlcNAc(b1-6)[Gal(b1-3)GlcNAc(b1-3)]Gal(b1-4)Glc
# Summary of the method: as §1
# [28] = target: Fuc(a1-3)[Gal(b1-4)]GlcNAc6S
# Summary of the method: as §1
# [29] = target: Fuc(a1-3)[Gal3S(b1-4)]Glc
# Summary of the method: as §1
# [30] = target: Fuc(a1-3)[Gal3S(b1-4)]GlcNAc
# Summary of the method: as §1
# [31] = target: Fuc(a1-3)[Gal3S(b1-4)]GlcNAc6S
# Summary of the method: as §1
# [32] = target: Fuc(a1-3)[GalNAc(b1-4)]GlcNAc
# Summary of the method: as §1
# [33] = target: Fuc(a1-3)[GalNAc(b1-4)]GlcNAc6S
# Summary of the method: as §1
# Fuc(a1-4)GlcNAc = target: Fuc(a1-4)GlcNAc
# Summary of the method: as §1
# Fuc(b1-3)GlcNAc = target: Fuc(b1-3)GlcNAc
# Summary of the method: as §1
# Gal(a1-2)Gal = target: Gal(a1-2)Gal
# Summary of the method: as §1
# Gal(a1-3)Gal = target: Gal(a1-3)Gal
# Summary of the method: as §1
# Gal(a1-3)Gal(b1-3)GlcNAc = target: Gal(a1-3)Gal(b1-3)GlcNAc
# Summary of the method: as §1
# [34] = target: Gal(a1-3)Gal(b1-3)GlcNAc(b1-2)Man
# Summary of the method: as §1
# [35] = target: Gal(a1-3)Gal(b1-3)GlcNAc(b1-2)Man(a1-3)[Gal(a1-3)Gal(b1-3)GlcNAc(b1-2)Man(a1-6)]Man(b1-4)GlcNAc(b1-4)GlcNAc
# Summary of the method: as §1
# [36] = target: Gal(a1-3)Gal(b1-3)GlcNAc(b1-3)GalNAc
# Summary of the method: as §1
# [37] = target: Gal(a1-3)Gal(b1-3)GlcNAc(b1-6)GalNAc
# Summary of the method: as §1
# [38] = target: Gal(a1-3)Gal(b1-3)[Fuc(a1-4)]GlcNAc(b1-2)Man(a1-3)[Gal(a1-3)Gal(b1-3)[Fuc(a1-4)]GlcNAc(b1-2)Man(a1-6)]Man(b1-4)GlcNAc(b1-4)GlcNAc
# Summary of the method: as §1
# Gal(a1-3)Gal(b1-4)Glc = target: Gal(a1-3)Gal(b1-4)Glc
# Summary of the method: as §1
binder,measurement,setting,value
Banana lectin (Musa acuminata) (protein) MNGAIKVGAHGGNGGSAFDMGPAYRIISVKIFSGDVVDGVDVTFTYYGKTETRHYGGSGGTPHEIVLQEGEYLVGMAGEVANYHGAVVLGKLGFSTNKKAYGPFGNTGGTPFSLPIAAGKISGFFGRGGKFLDAIGVYLEPLEHHHHHH,glycan array binding signal (z-score),[1],-0.184
same,glycan array binding signal (z-score),[2],-0.161
same,glycan array binding signal (z-score),[3],-0.196
same,glycan array binding signal (z-score),[4],-0.175
same,glycan array binding signal (z-score),[5],-0.167
same,glycan array binding signal (z-score),[6],-0.046
same,glycan array binding signal (z-score),[7],0.133
same,glycan array binding signal (z-score),[8],-0.186
same,glycan array binding signal (z-score),[9],-0.199
same,glycan array binding signal (z-score),[10],-0.145
same,glycan array binding signal (z-score),[11],-0.176
same,glycan array binding signal (z-score),[12],-0.215
same,glycan array binding signal (z-score),[13],-0.161
same,glycan array binding signal (z-score),[14],-0.14
same,glycan array binding signal (z-score),[15],-0.151
same,glycan array binding signal (z-score),[16],-0.171
same,glycan array binding signal (z-score),Fuc(a1-3)GlcNAc,-0.202
same,glycan array binding signal (z-score),[17],-0.159
same,glycan array binding signal (z-score),[18],-0.185
same,glycan array binding signal (z-score),[19],-0.195
same,glycan array binding signal (z-score),[20],-0.151
same,glycan array binding signal (z-score),[21],-0.148
same,glycan array binding signal (z-score),[22],-0.201
same,glycan array binding signal (z-score),[23],-0.146
same,glycan array binding signal (z-score),[24],-0.152
same,glycan array binding signal (z-score),[25],-0.16
same,glycan array binding signal (z-score),[26],-0.189
same,glycan array binding signal (z-score),[27],-0.184
same,glycan array binding signal (z-score),[28],-0.16
same,glycan array binding signal (z-score),[29],-0.129
same,glycan array binding signal (z-score),[30],-0.21
same,glycan array binding signal (z-score),[31],-0.127
same,glycan array binding signal (z-score),[32],-0.131
same,glycan array binding signal (z-score),[33],-0.194
same,glycan array binding signal (z-score),Fuc(a1-4)GlcNAc,-0.187
same,glycan array binding signal (z-score),Fuc(b1-3)GlcNAc,-0.188
same,glycan array binding signal (z-score),Gal(a1-2)Gal,-0.177
same,glycan array binding signal (z-score),Gal(a1-3)Gal,-0.173
same,glycan array binding signal (z-score),Gal(a1-3)Gal(b1-3)GlcNAc,-0.171
same,glycan array binding signal (z-score),[34],-0.18
same,glycan array binding signal (z-score),[35],-0.183
same,glycan array binding signal (z-score),[36],-0.176
same,glycan array binding signal (z-score),[37],-0.174
same,glycan array binding signal (z-score),[38],0.199
same,glycan array binding signal (z-score),Gal(a1-3)Gal(b1-4)Glc,-0.151
